The whole screen tested about 350,000 compounds, of which about 31,000 (8.9%) were called active. The inconclusive results got no clear call from the source; some entries with a clear call stand among them for comparison. The call rests on the fitted dose curve; in most records, active means well fitted inhibition curve with a large enough effect; inconclusive means small, poorly fitted or top-dose-only effect; inactive means no such curve, though single readings can be large or run the other way. A potency beside an inconclusive call is a rough fit, not a confirmed value. Some compounds were tested as several samples or in several runs, with calls that do not always agree.
target: Histone-lysine N-methyltransferase EHMT2 (Homo sapiens) (UniProt Q96KQ7); assay: qHTS Assay for Inhibitors of Histone Lysine Methyltransferase G9a; details: G9a H3K9 monomethylation, AlphaScreen, 2 h; activity, negative = inhibition: at 59 µM (top of the series) unless noted; further: nearly all actives have a fitted effect of over 75% in size
How it was run: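 Enzyme 20 nM + cpd, 15 min RT; add b-H3K9 pep 500 nM / SAM 20 uM; 2 h RT; anti-H3K9me1 Ab 0.5 ug/mL + SA donor / anti-rabbit acceptor beads 20 ug/mL each, 10 min; AlphaScreen read.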
On the % scale 0 is the no-effect control and ±100 the full control effect; potency means the concentration at half of the fitted maximal effect; tags describe the fitted curve by direction and shape.

Chain of UniProt Q96KQ7 (Q96KQ7 whole entry, looked up): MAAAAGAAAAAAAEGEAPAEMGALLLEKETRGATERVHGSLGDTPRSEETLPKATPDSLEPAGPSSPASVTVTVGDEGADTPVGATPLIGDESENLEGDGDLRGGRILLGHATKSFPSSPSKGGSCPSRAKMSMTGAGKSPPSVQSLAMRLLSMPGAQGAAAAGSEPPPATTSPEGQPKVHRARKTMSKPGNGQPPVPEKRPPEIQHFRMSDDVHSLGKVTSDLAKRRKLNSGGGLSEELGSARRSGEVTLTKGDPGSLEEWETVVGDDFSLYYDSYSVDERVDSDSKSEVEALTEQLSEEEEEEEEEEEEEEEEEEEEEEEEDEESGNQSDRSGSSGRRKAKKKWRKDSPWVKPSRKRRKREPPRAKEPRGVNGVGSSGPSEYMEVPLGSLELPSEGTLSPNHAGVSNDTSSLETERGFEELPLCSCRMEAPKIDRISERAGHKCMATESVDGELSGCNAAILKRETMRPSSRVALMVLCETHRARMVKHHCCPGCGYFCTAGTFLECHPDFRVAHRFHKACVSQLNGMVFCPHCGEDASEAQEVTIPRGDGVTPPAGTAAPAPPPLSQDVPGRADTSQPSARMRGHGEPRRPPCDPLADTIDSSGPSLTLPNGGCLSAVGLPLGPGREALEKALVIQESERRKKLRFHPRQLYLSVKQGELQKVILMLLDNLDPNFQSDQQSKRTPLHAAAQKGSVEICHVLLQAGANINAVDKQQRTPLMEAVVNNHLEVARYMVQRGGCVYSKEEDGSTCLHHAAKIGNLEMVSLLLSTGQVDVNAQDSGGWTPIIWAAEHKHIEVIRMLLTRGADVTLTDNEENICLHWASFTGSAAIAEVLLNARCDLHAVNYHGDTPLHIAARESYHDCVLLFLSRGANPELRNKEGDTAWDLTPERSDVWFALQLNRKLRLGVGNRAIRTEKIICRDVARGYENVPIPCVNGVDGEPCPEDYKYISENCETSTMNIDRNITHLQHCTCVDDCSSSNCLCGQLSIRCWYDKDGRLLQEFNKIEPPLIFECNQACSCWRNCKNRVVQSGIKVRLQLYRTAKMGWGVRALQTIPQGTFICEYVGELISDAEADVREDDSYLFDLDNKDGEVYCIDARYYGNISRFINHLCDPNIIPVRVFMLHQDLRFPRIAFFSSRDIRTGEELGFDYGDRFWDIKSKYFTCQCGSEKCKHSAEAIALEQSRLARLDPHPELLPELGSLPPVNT

| SMILES | activity, negative = inhibition | Potency |
| --- | --- | --- |
| O=C(C1=C[C@@H](C2CCCCC2)C[C@@H](OCc2ccc(CO)cc2)O1)N1CCN(Cc2ccc3c(c2)OCO3)CC1 | inconclusive: -69.4% [inhibitor] | – |
| COc1ccccc1C(=O)NC(=O)COC(=O)c1cc[n+]([O-])cc1 | inactive: 9.93% [at 0.501 µM] | – |
| O=C(COc1cccc(F)c1)Nc1ccc2[nH]c(=O)[nH]c2c1 | – | inconclusive: 44.7 µM [inhibitor, partial curve] |
| CC1(c2cc(F)ccc2F)NC(=O)N(CC(=O)Nc2cccc(S(=O)(=O)N3CCCC3)c2)C1=O (centres undefined) | – | inconclusive: 12.6 µM [inhibitor, single point] |
| Cn1c(=O)c(C(=O)NCCO)c(O)c2ccccc21 | – | inconclusive: 28.2 µM [inhibitor, single point] |
| CC(C)NC(=O)CSCc1cccc(Br)c1 | – | inconclusive: 89.1 µM [inhibitor, single point] |
| O=C(CCN1C(=O)/C(=C/c2cccs2)SC1=S)Nc1ccc(C(=O)O)cc1 | – | inconclusive: 79.4 µM [inhibitor, single point] |
| CCC(=O)NC(c1cccs1)c1cc(Cl)c2cccnc2c1O (centres undefined) | – | inactive |
| CC1(C)CCC2=C(O1)c1ccccc1C(=O)C2=O | – | active: 14.1 µM |
| COCCn1c(=S)[nH]c2cc(C(=O)N3CCN(c4ccccc4OC)CC3)ccc2c1=O | – | inconclusive: 3.55 µM [inhibitor, full curve, poor fit] |
| CN(CC(=O)N1CCN(Cc2ccccc2)CC1)C(=O)Cc1cccc2ccccc12 | – | inconclusive: 1.26 µM [inhibitor, single point] |
| COc1ccc(Cl)cc1NC(=O)NCCN1CCCCC1 | – | inconclusive: 89.1 µM [inhibitor, single point] |
| CN(CC(=O)Nc1ccc(F)cc1)C(=O)COC(=O)c1cc(S(=O)(=O)N(C)C)ccc1N1CCCC1 | – | inactive |
| O=C(/C=C/c1ccc2c(c1)OCO2)c1ccccn1 | – | inconclusive: 28.2 µM [inhibitor, single point] |
| CCOC(=O)c1sc(S(C)(=O)=O)c2c1CCc1conc1-2 | – | active: 56.2 µM |
| CN1CCN(NC(=O)c2cn(-c3ccccc3)nc2-c2cccs2)CC1 | – | inconclusive: 63.1 µM [inhibitor, partial curve, poor fit] |
| Cc1cccc(N2CCN(C(=O)CCn3c(=O)c4cccn4c4cccnc43)CC2C)c1 (centres undefined) | – | inactive |
| CCSc1nnc(NC(=O)NC(C)(C(F)(F)F)C(F)(F)F)s1 | – | inconclusive: 89.1 µM [inhibitor, single point] |
| O=C(CSc1nnc(Nc2ccccc2F)s1)NC(=O)CN1CCCC1=O | – | inconclusive: 6.31 µM [inhibitor, single point] |
| COc1ccccc1CNc1nc(C)c(C(=O)N(C)C)s1 | – | active: 14.1 µM |
| COc1cc(C(=O)OCCCN2CCOCC2)ccc1O | – | inconclusive: 89.1 µM [inhibitor, single point] |
| O=C(CCN1C(=O)C2CC=CCC2C1=O)Nc1nccs1 (centres undefined) | – | inconclusive: 89.1 µM [inhibitor, single point] |

| SMILES | activity, negative = inhibition | Potency |
| --- | --- | --- |
| Cc1ccc(C)c(S(=O)(=O)N2CCCC2CNC(=O)C(=O)NCCc2ccco2)c1 (centres undefined) | – | inconclusive: 79.4 µM [inhibitor, partial curve, poor fit] |
| Cc1nnc(N2CCCC(C(=O)NCCc3ccc(Cl)cc3)C2)c2nn(-c3ccccc3)c(C)c12 (centres undefined) | – | inactive |
| COc1cc(C(C[N+](=O)[O-])c2c(C)cc3ccccn23)ccc1O (centres undefined) | – | active: 31.6 µM |
| Cc1ccc(C(=O)N2CCC3(CC2)Oc2ccc(Cl)cc2C(=O)C32CC(c3ccccc3)=NO2)s1 (centres undefined) | – | inactive |
| CCOC(=O)C1=C(O)/C(=C\c2ccc(OC)c(OC)c2)N=C1C | inactive: 0.161% [at 2.33 µM] | – |
| c1ccc(SCc2nc3ccccc3s2)nc1 | – | active: 35.5 µM |
| COc1cccc(Cn2c(=O)c(-c3cccc(C#N)c3)nc3cnc(N4CCOCC4)nc32)c1 | inactive: 7.89% [at 0.501 µM] | – |
| O=C(NC1CCCC1)C1CC(O)CN1C(=O)Nc1ccccc1 (centres undefined) | – | inactive |
| CSCC[C@H](NC(=O)OC(C)(C)C)c1nnc(SCc2cccc(F)c2)o1 | – | inconclusive: 44.7 µM [inhibitor, partial curve] |
| CC1=C(C(=O)Nc2ccc(C)cc2C)C(c2cccs2)n2nc(SCc3ccccc3Cl)nc2N1 (centres undefined) | – | inactive |
| COc1ccc(CCNC(=O)CSc2nnc(-c3ccco3)c(-c3ccco3)n2)cc1OC | – | active: 8.91 µM |
| Cc1ccc(CS(=O)(=O)Cc2ccc(C(=O)NCc3ccccn3)o2)cc1 | inconclusive: -58.2% [inhibitor] | – |
| Cc1csc(NC(=O)CSc2nnc(NC(=O)NC(C)(C)C)s2)n1 | – | inconclusive: 44.7 µM [inhibitor, partial curve, poor fit] |
| Cc1ccc(N2CCN(C(=O)c3cccc([N+](=O)[O-])c3)CC2)cc1Cl | – | inconclusive: 44.7 µM [inhibitor, partial curve, poor fit] |
| CC(C)C(Nc1ccc(C(F)(F)F)cc1[N+](=O)[O-])C(=O)O (centres undefined) | – | inconclusive: 89.1 µM [inhibitor, single point] |
| CC(=O)N1CCN(C(=O)c2cc(S(=O)(=O)N(C)Cc3ccccc3)ccc2Cl)CC1 | – | inconclusive: 89.1 µM [inhibitor, partial curve, poor fit] |
| Cn1c(CCCOc2ccc(Cl)cc2Cl)n[nH]c1=S | – | inconclusive: 10 µM [inhibitor, full curve, poor fit] |
| CC(NC(=O)c1ccccc1Cl)C(=O)Nc1ccc2c(c1)OCO2 (centres undefined) | – | inconclusive: 50.1 µM [inhibitor, partial curve] |
| CCn1cc(C(=O)N2CCN(c3ccccc3F)CC2)c(=O)c2cc(S(=O)(=O)N(C)C)ccc21 | – | inactive |
| O=C(CC1C(=O)NCCN1Cc1cccc(Oc2ccccc2)c1)NCCCn1cccn1 (centres undefined) | – | active: 50.1 µM |
| CCn1cc(C2=NOC(C(=O)Nc3cc(OC)c(Cl)cc3OC)C2)c(C)n1 (centres undefined) | – | inconclusive: 1 µM [inhibitor, single point] |
| COc1ccc(CNc2oc(-c3ccc(COc4ccccc4C)o3)nc2C#N)cc1 | – | inconclusive: 3.16 µM [inhibitor, full curve] |
